This is one part of the list.
Experiments:
Assay in all cases: glycan array binding signal (z-score within array); higher = stronger binding
Conditions in all cases: glycan notation: IUPAC condensed, linker removed
[1] = molecular target: GlcNAc(b1-2)[GlcNAc(b1-6)]Man(a1-6)[GlcNAc(b1-4)][GlcNAc(b1-2)Man(a1-3)]Man(b1-4)GlcNAc(b1-4)GlcNAc
Method in brief: (§1)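 Columns mapping to the same glycan were averaged after glycan names were converted to IUPAC-condensed notation. The data come from 3228 arrays in the Consortium for Functional Glycomics database, limited to those with an available protein sequence. Binding is reported as a within-array Z-score averaged across arrays of one protein sequence and across linkers.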

GlcNAc(b1-3)Fuc = molecular target: GlcNAc(b1-3)Fuc
Method in brief: as §1

GlcNAc(b1-3)Gal = molecular target: GlcNAc(b1-3)Gal
Method in brief: as §1

[2] = molecular target: GlcNAc(b1-3)Gal(b1-3)GalNAc
Method in brief: as §1

GlcNAc(b1-3)Gal(b1-4)Glc = molecular target: GlcNAc(b1-3)Gal(b1-4)Glc
Method in brief: as §1

[3] = molecular target: GlcNAc(b1-3)Gal(b1-4)GlcNAc
Method in brief: as §1

[4] = molecular target: GlcNAc(b1-3)Gal(b1-4)GlcNAc(b1-2)Man(a1-3)[GlcNAc(b1-3)Gal(b1-4)GlcNAc(b1-2)Man(a1-6)]Man(b1-4)GlcNAc(b1-4)GlcNAc
Method in brief: as §1

[5] = molecular target: GlcNAc(b1-3)Gal(b1-4)GlcNAc(b1-2)Man(a1-3)[GlcNAc(b1-3)Gal(b1-4)GlcNAc(b1-2)Man(a1-6)]Man(b1-4)GlcNAc(b1-4)[Fuc(a1-6)]GlcNAc
Method in brief: as §1

[6] = molecular target: GlcNAc(b1-3)Gal(b1-4)GlcNAc(b1-2)[GlcNAc(b1-3)Gal(b1-4)GlcNAc(b1-6)]Man(a1-6)[GlcNAc(b1-3)Gal(b1-4)GlcNAc(b1-2)Man(a1-3)]Man(b1-4)GlcNAc(b1-4)GlcNAc
Method in brief: as §1

[7] = molecular target: GlcNAc(b1-3)Gal(b1-4)GlcNAc(b1-3)Gal(b1-4)GlcNAc
Method in brief: as §1

[8] = molecular target: GlcNAc(b1-3)Gal(b1-4)GlcNAc(b1-3)Gal(b1-4)GlcNAc(b1-2)Man(a1-3)[GlcNAc(b1-3)Gal(b1-4)GlcNAc(b1-3)Gal(b1-4)GlcNAc(b1-2)Man(a1-6)]Man(b1-4)GlcNAc(b1-4)GlcNAc
Method in brief: as §1

[9] = molecular target: GlcNAc(b1-3)Gal(b1-4)GlcNAc(b1-3)Gal(b1-4)GlcNAc(b1-2)Man(a1-3)[GlcNAc(b1-3)Gal(b1-4)GlcNAc(b1-3)Gal(b1-4)GlcNAc(b1-2)Man(a1-6)]Man(b1-4)GlcNAc(b1-4)[Fuc(a1-6)]GlcNAc
Method in brief: as §1

[10] = molecular target: GlcNAc(b1-3)Gal(b1-4)GlcNAc(b1-3)Gal(b1-4)GlcNAc(b1-2)[GlcNAc(b1-3)Gal(b1-4)GlcNAc(b1-3)Gal(b1-4)GlcNAc(b1-6)]Man(a1-6)[GlcNAc(b1-3)Gal(b1-4)GlcNAc(b1-3)Gal(b1-4)GlcNAc(b1-2)Man(a1-3)]Man(b1-4)GlcNAc(b1-4)[Fuc(a1-6)]GlcNAc
Method in brief: as §1

[11] = molecular target: GlcNAc(b1-3)Gal(b1-4)GlcNAc(b1-3)Gal(b1-4)GlcNAc(b1-3)Gal(b1-4)GlcNAc(b1-2)Man(a1-3)[GlcNAc(b1-3)Gal(b1-4)GlcNAc(b1-3)Gal(b1-4)GlcNAc(b1-3)Gal(b1-4)GlcNAc(b1-2)Man(a1-6)]Man(b1-4)GlcNAc(b1-4)GlcNAc
Method in brief: as §1

[12] = molecular target: GlcNAc(b1-3)Gal(b1-4)GlcNAc(b1-3)Gal(b1-4)GlcNAc(b1-3)Gal(b1-4)GlcNAc(b1-2)Man(a1-3)[GlcNAc(b1-3)Gal(b1-4)GlcNAc(b1-3)Gal(b1-4)GlcNAc(b1-3)Gal(b1-4)GlcNAc(b1-2)Man(a1-6)]Man(b1-4)GlcNAc(b1-4)[Fuc(a1-6)]GlcNAc
Method in brief: as §1

[13] = molecular target: GlcNAc(b1-3)Gal(b1-4)GlcNAc(b1-3)Gal(b1-4)GlcNAc(b1-3)Gal(b1-4)GlcNAc(b1-2)[GlcNAc(b1-3)Gal(b1-4)GlcNAc(b1-3)Gal(b1-4)GlcNAc(b1-3)Gal(b1-4)GlcNAc(b1-6)]Man(a1-6)[GlcNAc(b1-3)Gal(b1-4)GlcNAc(b1-3)Gal(b1-4)GlcNAc(b1-3)Gal(b1-4)GlcNAc(b1-2)Man(a1-3)]Man(b1-4)GlcNAc(b1-4)[Fuc(a1-6)]GlcNAc
Method in brief: as §1

[14] = molecular target: GlcNAc(b1-3)Gal(b1-4)GlcNAc(b1-3)Gal(b1-4)GlcNAc(b1-3)Gal(b1-4)GlcNAc(b1-3)Gal(b1-4)GlcNAc(b1-2)Man(a1-3)[GlcNAc(b1-3)Gal(b1-4)GlcNAc(b1-3)Gal(b1-4)GlcNAc(b1-3)Gal(b1-4)GlcNAc(b1-3)Gal(b1-4)GlcNAc(b1-2)Man(a1-6)]Man(b1-4)GlcNAc(b1-4)GlcNAc
Method in brief: as §1

[15] = molecular target: GlcNAc(b1-3)Gal(b1-4)GlcNAc(b1-3)Gal(b1-4)GlcNAc(b1-3)Gal(b1-4)GlcNAc(b1-3)Gal(b1-4)GlcNAc(b1-2)Man(a1-3)[GlcNAc(b1-3)Gal(b1-4)GlcNAc(b1-3)Gal(b1-4)GlcNAc(b1-3)Gal(b1-4)GlcNAc(b1-3)Gal(b1-4)GlcNAc(b1-2)Man(a1-6)]Man(b1-4)GlcNAc(b1-4)[Fuc(a1-6)]GlcNAc
Method in brief: as §1

[16] = molecular target: GlcNAc(b1-3)Gal(b1-4)GlcNAc(b1-3)Gal(b1-4)GlcNAc(b1-3)Gal(b1-4)GlcNAc(b1-3)Gal(b1-4)GlcNAc(b1-2)[GlcNAc(b1-3)Gal(b1-4)GlcNAc(b1-3)Gal(b1-4)GlcNAc(b1-3)Gal(b1-4)GlcNAc(b1-3)Gal(b1-4)GlcNAc(b1-6)]Man(a1-6)[GlcNAc(b1-3)Gal(b1-4)GlcNAc(b1-3)Gal(b1-4)GlcNAc(b1-3)Gal(b1-4)GlcNAc(b1-3)Gal(b1-4)GlcNAc(b1-2)Man(a1-3)]Man(b1-4)GlcNAc(b1-4)[Fuc(a1-6)]GlcNAc
Method in brief: as §1

[17] = molecular target: GlcNAc(b1-3)Gal(b1-4)GlcNAc(b1-3)Gal(b1-4)GlcNAc(b1-3)GalNAc
Method in brief: as §1

[18] = molecular target: GlcNAc(b1-3)Gal(b1-4)GlcNAc(b1-3)GalNAc
Method in brief: as §1

[19] = molecular target: GlcNAc(b1-3)Gal(b1-4)GlcNAc(b1-3)[GlcNAc(b1-3)Gal(b1-4)GlcNAc(b1-3)]GalNAc
Method in brief: as §1

[20] = molecular target: GlcNAc(b1-3)Gal(b1-4)GlcNAc(b1-6)[Gal(b1-3)]GalNAc
Method in brief: as §1

[21] = molecular target: GlcNAc(b1-3)Gal(b1-4)GlcNAc(b1-6)[GlcNAc(b1-3)Gal(b1-3)]GalNAc
Method in brief: as §1

[22] = molecular target: GlcNAc(b1-3)Gal(b1-4)GlcNAc(b1-6)[GlcNAc(b1-3)]Gal(b1-4)GlcNAc
Method in brief: as §1

GlcNAc(b1-3)GalNAc = molecular target: GlcNAc(b1-3)GalNAc
Method in brief: as §1

GlcNAc(b1-3)Man = molecular target: GlcNAc(b1-3)Man
Method in brief: as §1

[23] = molecular target: GlcNAc(b1-3)[GlcNAc(b1-4)][GlcNAc(b1-6)]GlcNAc
Method in brief: as §1

[24] = molecular target: GlcNAc(b1-3)[GlcNAc(b1-6)]Gal(b1-4)GlcNAc
Method in brief: as §1

[25] = molecular target: GlcNAc(b1-3)[GlcNAc(b1-6)]GalNAc
Method in brief: as §1

B1: Siglec-F (Mus musculus), Q920G3 (protein)
chain: MRWAWLLPLLWAGCLATDGYSLSVTGSVTVQEGLCVFVACQVQYPNSKGPVFGYWFREGANIFSGSPVATNDPQRSVLKEAQGRFYLMGKENSHNCSLDIRDAQKIDTGTYFFRLDGSVKYSFQKSMLSVLVIALTEVPNIQVTSTLVSGNSTKLLCSVPWACEQGTPPIFSWMSSALTSLGHRTTLSSELNLTPRPQDNGTNLTCQVNLPGTGVTVERTQQLSVIYAPQKMTIRVSWGDDTGTKVLQSGASLQIQEGESLSLVCMADSNPPAVLSWERPTQKPFQLSTPAELQLPRAELEDQGKYICQAQNSQGAQTASVSLSIRSLLQLLGPSCSFEGQGLHCSCSSRAWPAPSLRWRLGEGVLEGNSSNGSFTVKSSSAGQWANSSLILSMEFSSNHRLSCEAWSDNRVQRATILLVSGPKVSQAGKSETSRGTVLGAIWGAGLMALLAVCLCLIFFTVKVLRKKSALKVAATKGNHLAKNPASTINSASITSSNIALGYPIQGHLNEPGSQTQKEQPPLATVPDTQKDEPELHYASLSFQGPMPPKPQNTEAMKSVYTEIKIHKC
[1]
  glycan array binding signal (z-score): -0.163
GlcNAc(b1-3)Fuc
  glycan array binding signal (z-score): -0.135
GlcNAc(b1-3)Gal
  glycan array binding signal (z-score): -0.135
[2]
  glycan array binding signal (z-score): -0.127
GlcNAc(b1-3)Gal(b1-4)Glc
  glycan array binding signal (z-score): -0.122
[3]
  glycan array binding signal (z-score): -0.118
[4]
  glycan array binding signal (z-score): -0.149
[5]
  glycan array binding signal (z-score): -0.083
[6]
  glycan array binding signal (z-score): -0.141
[7]
  glycan array binding signal (z-score): -0.126
[8]
  glycan array binding signal (z-score): -0.064
[9]
  glycan array binding signal (z-score): -0.134
[10]
  glycan array binding signal (z-score): -0.064
[11]
  glycan array binding signal (z-score): 0.031
[12]
  glycan array binding signal (z-score): -0.142
[13]
  glycan array binding signal (z-score): -0.079
[14]
  glycan array binding signal (z-score): 0.025
[15]
  glycan array binding signal (z-score): -0.133
[16]
  glycan array binding signal (z-score): -0.126
[17]
  glycan array binding signal (z-score): -0.143
[18]
  glycan array binding signal (z-score): -0.147
[19]
  glycan array binding signal (z-score): -0.139
[20]
  glycan array binding signal (z-score): -0.15
[21]
  glycan array binding signal (z-score): -0.163
[22]
  glycan array binding signal (z-score): -0.168
GlcNAc(b1-3)GalNAc
  glycan array binding signal (z-score): -0.12
GlcNAc(b1-3)Man
  glycan array binding signal (z-score): -0.125
[23]
  glycan array binding signal (z-score): -0.117
[24]
  glycan array binding signal (z-score): -0.123
[25]
  glycan array binding signal (z-score): -0.123
